Data on 56 compounds can be found in paper PMC4336329 (PLoS ONE, 2015).

Structures are written as SMILES. Among all 310,000 compounds or so, about 2,200 (0.71%) showed an effect of 50% or more. Effects have a minus sign here. This is one part of the list.

In this experiment the target is human ether-à-go-go-related gene (hERG) potassium channel (human, UniProt Q12809). Put plainly: primary screen, population patch clamp on CHO cells stably expressing hERG.
Sequence of human ether-à-go-go-related gene (hERG) potassium channel (Q12809 whole entry, looked up): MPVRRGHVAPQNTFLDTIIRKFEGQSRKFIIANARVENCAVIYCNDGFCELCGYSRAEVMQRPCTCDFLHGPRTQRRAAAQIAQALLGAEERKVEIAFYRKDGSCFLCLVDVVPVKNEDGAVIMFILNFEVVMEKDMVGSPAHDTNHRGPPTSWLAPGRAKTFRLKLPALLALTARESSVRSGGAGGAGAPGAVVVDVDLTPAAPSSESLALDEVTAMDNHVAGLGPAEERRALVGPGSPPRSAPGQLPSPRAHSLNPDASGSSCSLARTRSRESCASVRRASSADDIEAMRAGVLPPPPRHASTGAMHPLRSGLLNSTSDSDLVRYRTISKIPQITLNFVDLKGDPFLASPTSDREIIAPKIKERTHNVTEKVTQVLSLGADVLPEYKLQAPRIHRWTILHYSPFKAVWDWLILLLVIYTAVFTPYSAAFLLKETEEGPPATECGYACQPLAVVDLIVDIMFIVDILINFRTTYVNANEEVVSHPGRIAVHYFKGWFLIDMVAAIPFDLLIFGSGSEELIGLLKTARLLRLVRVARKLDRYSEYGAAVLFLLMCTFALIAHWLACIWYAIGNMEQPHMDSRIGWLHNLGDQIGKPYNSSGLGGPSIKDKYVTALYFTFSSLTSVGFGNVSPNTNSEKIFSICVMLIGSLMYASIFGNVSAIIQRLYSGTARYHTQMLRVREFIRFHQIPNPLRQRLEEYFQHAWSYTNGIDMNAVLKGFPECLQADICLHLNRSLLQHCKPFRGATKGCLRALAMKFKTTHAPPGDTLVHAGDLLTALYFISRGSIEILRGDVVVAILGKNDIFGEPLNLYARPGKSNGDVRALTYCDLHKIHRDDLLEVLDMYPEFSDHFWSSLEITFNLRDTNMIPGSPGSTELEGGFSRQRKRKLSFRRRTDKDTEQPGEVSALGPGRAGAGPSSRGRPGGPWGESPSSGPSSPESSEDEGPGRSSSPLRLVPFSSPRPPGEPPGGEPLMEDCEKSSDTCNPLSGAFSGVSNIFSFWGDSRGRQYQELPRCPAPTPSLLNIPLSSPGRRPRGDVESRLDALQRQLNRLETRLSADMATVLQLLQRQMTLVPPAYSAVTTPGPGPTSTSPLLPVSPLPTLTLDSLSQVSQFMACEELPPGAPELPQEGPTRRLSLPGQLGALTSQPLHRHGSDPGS
In the case of `O=C(CCc1nc2ccccc2[nH]c1=O)OCc1ccc(S(=O)(=O)N2CCOCC2)cc1`, the “hERG current change (%, negative = inhibition) at 1uM” value is 4.44%. Turning to `Cc1ccc(-c2ccccc2NC(=O)CS(=O)CC(=O)Nc2ccc(C)c(Cl)c2)o1` (centres unmarked), the “hERG current change (%, negative = inhibition) at 1uM” value was 8.52%. The figure for `O=c1oc2c3c4c(cc2c2c1CCC2)OCCN4CCC3` is 6.17%; for `Cc1nc(Nc2cccc(C(C)O)c2)c2nnn(Cc3ccc(F)cc3)c2n1` (centres unmarked) it is 10.9%.

Take `Cc1ccc(S(=O)(=O)/N=C2/NC(=O)/C(=C/c3ccccn3)S2)cc1`: the “hERG current change (%, negative = inhibition) at 1uM” value worked out at 8.16%.

Turning to `COc1ccccc1OCC(=O)Nc1nonc1NC(=O)COc1ccccc1OC`, the “hERG current change (%, negative = inhibition) at 1uM” value was found to be 7.89%. The figure for `O=C(c1cccc(C(=O)N2CCN(c3ccccc3)CC2)c1)N1CCN(c2ccccc2)CC1` is -5.28%. The figure for `O=[N+]([O-])c1nn(-c2ccc3c(c2)OCCO3)n(O)c1=Nc1ccccc1` is 7.69%. The figure for `COc1ccc(-c2oc(NC(=O)CSc3nncn3C)c(C#N)c2-c2ccc(OC)cc2)cc1` is 13.3%; for `CN(Cc1ccccc1)C(=O)COc1ccc2ccccc2c1` it is 4.91%.

Regarding `COc1ccc(NC(=O)c2ccc([N+](=O)[O-])cc2[N+](=O)[O-])c(OC)c1`, the “hERG current change (%, negative = inhibition) at 1uM” value was 5.23%. The figure for `Cc1cc(S(=O)(=O)N2CCN(Cc3ccccc3)CC2)c(C)s1.Cl` is 2.04%.

In the case of `CC1=NN(CCC#N)C(=O)/C1=C/c1ccc(N(C)C)cc1`, the “hERG current change (%, negative = inhibition) at 1uM” value amounted to 13%. `N/C(=N\OC(=O)COc1ccc(Cl)cc1Br)c1cccnc1`: the “hERG current change (%, negative = inhibition) at 1uM” value is reported as -1.87%.

`CCCc1nnc(SCC(=O)NC2CC2)n1C`: the “hERG current change (%, negative = inhibition) at 1uM” value amounted to 15.1%. The figure for `C=CC[C@@]12C=C(OC)C(=O)C(OC)=C1O[C@H](c1ccc3c(c1)OCO3)[C@H]2C` is 12.5%. With `Cc1ccc(Nc2nc(N)nc(CN3CCN(C)CC3)n2)cc1`, the “hERG current change (%, negative = inhibition) at 1uM” value stood at 4.62%. The figure for `O=C(N/N=C/c1cccc(C(F)(F)F)c1)c1ccccc1O` is 7.95%; for `COC(Cn1c(-c2cccc(S(=O)(=O)N(C)C)c2)n[nH]c1=S)OC` it is 1.89%. On to `CC(=O)OCC1=C(C(=O)O)N2C(=O)C(NC(=O)CC(C)c3ccccc3)C2SC1` (centres unmarked), for which the “hERG current change (%, negative = inhibition) at 1uM” value worked out at 1.25%. With `OCCC1CN(Cc2ccsc2)CCN1C1CCCC1` (centres unmarked), the “hERG current change (%, negative = inhibition) at 1uM” value amounted to 16.5%. Consider `Nc1nc(SCC(=O)Nc2ccccc2-c2ccccc2)n[nH]1`, for which the “hERG current change (%, negative = inhibition) at 1uM” value turned out to be 8.49%. Turning to `COc1ccc(/C(=C\Nc2ccc(C)c(C)c2)C(C)=O)cc1OC`, the “hERG current change (%, negative = inhibition) at 1uM” value came to 3.7%.

With `NNC(=O)/C(=N/Nc1ccccc1)S(=O)(=O)c1ccc(Cl)cc1`, the “hERG current change (%, negative = inhibition) at 1uM” value was 6.37%. As to `O=CNc1ccc(OP(=O)(Oc2ccccc2)Oc2ccccc2)cc1`, the “hERG current change (%, negative = inhibition) at 1uM” value was 1.71%. Turning to `O=C(CCS(=O)(=O)c1ccc2c(c1)NC(=O)CS2)NCCc1ccccc1`, the “hERG current change (%, negative = inhibition) at 1uM” value came to 14.9%. The figure for `NNC(=O)COc1ccc(C(F)(F)F)cc1` is 8.73%; for `COCC(=O)n1nc(-c2ccccc2)nc1NCc1ccc(F)cc1` it is 1.87%. The figure for `Cn1cc(Cl)c(C(=O)Nc2nc3ccc(Cl)cc3s2)n1` is 2.49%; for `Cn1c2c(c(=O)n(C)c1=O)C(c1ccc(Br)cc1)Nc1ccccc1O2` (centres unmarked) it is 1.36%; for `O=C(NCc1ccco1)/C(=C\c1cccs1)NC(=O)c1ccccc1` it is 3.71%. For the compound `COc1ccccc1NC(=O)Nc1nnc(CC(=O)Nc2ccccc2C)s1`, the “hERG current change (%, negative = inhibition) at 1uM” value is 17.6%. On to `CCOC(=O)c1nnc(-c2ccc(C)cc2)nc1Sc1cccc(Cl)c1`, for which the “hERG current change (%, negative = inhibition) at 1uM” value is reported as -0.239%. With `CC(C)c1ccc2oc(=O)cc(CN3CCN(c4ccc(F)cc4)CC3)c2c1`, the “hERG current change (%, negative = inhibition) at 1uM” value was found to be 2.8%. As for `CCCn1c(SCC(=O)Nc2cccc(C(=O)OC)c2)nnc1-c1cccnc1`, the “hERG current change (%, negative = inhibition) at 1uM” value was -22.5%. `O=C(Cc1ccccc1)N/N=C/c1ccc2cccc(O)c2n1`: the “hERG current change (%, negative = inhibition) at 1uM” value amounted to 0.782%.

Take `CCOC(=O)c1ccc2c(c1)n(Cc1ccccc1)c(C)[n+]2CC.[O-][Cl+3]([O-])([O-])[O-]`: the “hERG current change (%, negative = inhibition) at 1uM” value was 1.03%. As for `CC1CCN(C(=O)Nc2cccc(NC(=O)N3CCC(C)CC3)c2)CC1`, the “hERG current change (%, negative = inhibition) at 1uM” value is 9.36%. The figure for `CC1(C(=O)O)C=CCN1C(=O)c1ccccc1` (centres unmarked) is 11.7%. Turning to `CNC(=O)c1c(O)c2cccc3c2n(c1=O)CCC3`, the “hERG current change (%, negative = inhibition) at 1uM” value stood at 13.4%. The figure for `O=C1SCCC1NS(=O)(=O)c1ccccc1[N+](=O)[O-]` (centres unmarked) is 13.3%. For the compound `CCOC(=O)c1ccc(NC(=O)c2cccnc2)cc1`, the “hERG current change (%, negative = inhibition) at 1uM” value was 16.5%.

As to `C#CCNC(=O)C1=C[C@H](c2ccc(Br)cc2)[C@@H](CCCO)[C@H](OCC)O1`, the “hERG current change (%, negative = inhibition) at 1uM” value amounted to 11.3%. Consider `CCn1c2ccccc2c2cc(NC(=O)c3cc(C)on3)ccc21`, for which the “hERG current change (%, negative = inhibition) at 1uM” value was determined as 5.94%. The figure for `CC(C)(C)NC(=O)C(c1ccccc1)N(C(=O)C1CSC(=O)C1)c1ccccc1` (centres unmarked) is 8.06%. The figure for `CCCCn1c(N)c(N(CC(C)C)C(=O)C2CSC3(C)CCC(=O)N23)c(=O)[nH]c1=O` (centres unmarked) is 23.4%; for `CC(C)NC(=O)N1CCN(c2ccncc2S(=O)(=O)N2CCOCC2)CC1` it is 2.54%. The figure for `CCOC(=O)c1[nH]c(C)c(C(=O)C(C)C)c1C` is 13.9%. With `Cc1cc(C(=O)Nc2ccc(N3CCOCC3)c3nonc23)ccc1[N+](=O)[O-]`, the “hERG current change (%, negative = inhibition) at 1uM” value is given as 9.36%. In the case of `Cc1nc2ccc(NC(=O)c3ccc(Br)o3)cc2s1`, the “hERG current change (%, negative = inhibition) at 1uM” value is reported as 8.64%. The figure for `CCCN1Cc2cccc(C(=O)NCc3ccccc3OC)c2C1=O` is -2.87%; for `COc1ccc(S(=O)(=O)NC(C)C(=O)NCc2ccncc2)cc1Cl` (centres unmarked) it is 13.7%; for `O=c1cc(O)c2c(=O)n(-c3ccccc3)c3ccccc3c2o1` it is 12.2%.

As for `O=C(COC(=O)c1ccc(-c2ccc([N+](=O)[O-])cc2)o1)NC(=O)NC1CCCCC1`, the “hERG current change (%, negative = inhibition) at 1uM” value is recorded as 3.83%.

Regarding `CCCn1c(=O)c2ccccc2n2c(SCCOc3ccccc3F)nnc12`, the “hERG current change (%, negative = inhibition) at 1uM” value amounted to 2.21%. Consider `CCCCn1c(N)c(N(CCOC)C(=O)c2ccc(-c3ccc([N+](=O)[O-])cc3)o2)c(=O)[nH]c1=O`, for which the “hERG current change (%, negative = inhibition) at 1uM” value was 11%.
